Hit rate of the full screen: of about 45,000 compounds, about 65 (0.1%) were called active. The call rests on the fitted dose curve; in most records, active means well fitted activation curve with a large enough effect; inconclusive means small, poorly fitted or top-dose-only effect; inactive means no such curve, though single readings can be large or run the other way. This is one part of the list.
Target: Galactocerebrosidase (Homo sapiens) (UniProt P54803)
Test: A Novel Cell-Based Assay to Identify Small Molecules for B -Galactocerebrosidase; further: 0% is about no effect; nearly all actives have a fitted effect of over 65% in size
Settings: 145M-Twi-hGALC-G270D cells (Twitcher mouse brain line with human GALC G270D), HMU-beta-Gal fluorescence, 48 h; series mostly up to 57.5 µM; activation: at the top concentration
Outline: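 Brain-derived Twitcher mouse 145M-Twi cells stably expressing human GALC-G270D or wild-type GALC, treated live, then residual GALC activity read by fluorescence of HMU-b-Gal substrate (0.1 mM final) in citrate-phosphate buffer pH 5.2 with sodium taurocholate. Signal increase indicates enhancement.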

Chain of UniProt P54803 (P54803 whole entry, looked up): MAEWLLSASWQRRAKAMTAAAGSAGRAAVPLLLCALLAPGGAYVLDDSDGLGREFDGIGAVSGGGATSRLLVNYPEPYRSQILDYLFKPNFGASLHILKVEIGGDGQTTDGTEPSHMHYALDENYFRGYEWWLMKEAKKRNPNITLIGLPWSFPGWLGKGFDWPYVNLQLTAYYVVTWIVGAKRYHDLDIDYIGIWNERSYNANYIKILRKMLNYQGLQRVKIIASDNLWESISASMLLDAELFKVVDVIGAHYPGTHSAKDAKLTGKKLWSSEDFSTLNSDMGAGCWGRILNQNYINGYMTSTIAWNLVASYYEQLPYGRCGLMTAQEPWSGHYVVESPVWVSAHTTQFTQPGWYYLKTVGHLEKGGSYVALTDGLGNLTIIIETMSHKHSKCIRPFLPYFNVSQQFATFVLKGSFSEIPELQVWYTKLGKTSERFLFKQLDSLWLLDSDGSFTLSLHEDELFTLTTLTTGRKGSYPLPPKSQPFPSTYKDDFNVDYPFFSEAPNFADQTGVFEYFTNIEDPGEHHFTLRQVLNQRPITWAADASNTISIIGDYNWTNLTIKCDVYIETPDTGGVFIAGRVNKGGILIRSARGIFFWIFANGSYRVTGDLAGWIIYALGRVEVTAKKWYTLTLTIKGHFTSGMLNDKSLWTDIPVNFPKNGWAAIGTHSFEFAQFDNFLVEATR

activation, inactive:
Fc1ccc(F)c(Nc2c3c(nc4ccc(Cl)cc24)CCC3)c1 -3.96%
CCN(CC)CCCNC(=O)c1c2c(nc3ccccc13)C(=O)N(C1CCCCC1)C2 -19.1%
CCOC(=O)c1c(NC(=O)c2cc(=O)c3cc(Cl)ccc3o2)sc(C)c1C -8.74%
COc1ccc(N2C(=O)C(CC(=O)Nc3ccc(Cl)cc3)N(Cc3ccc4c(c3)OCO4)C2=O)cc1 (stereo not given) -15.4%
Cc1cccc2sc(N(Cc3cccnc3)C(=O)CCS(=O)(=O)c3ccccc3)nc12 -4.16%
COc1ccc(NC(=O)CCc2nc3cccnc3n2-c2ccccc2)c(OC)c1 -8.15%
COCCn1c(=N)c(C(=O)NCC2CCCO2)cc2c(=O)n3ccccc3nc21 (stereo not given) -11%
CCOc1ccc(CCNC(=O)CSc2nnnn2-c2ccccc2Cl)cc1OCC -5.9%
CCN1CCN(C(c2ccc(C)cc2)c2sc3nc(-c4ccco4)nn3c2O)CC1 (stereo not given) -11.9%
Cc1cccc(-c2nc(SCc3cc(=O)c4cccc(F)c4[nH]3)n[nH]2)c1 -2.8%
Cc1ccc(C)c(N2CCN(C(=O)CN3CCSc4ccccc43)CC2)c1 -33.6%
COc1cc(C(=O)Nc2ccccc2OCc2cc(=O)n3c(C)csc3n2)cc(OC)c1OC -6.01%
CCOc1ccc(NC(=O)CC2Nc3cccc4cccc(c34)NC2=O)cc1 (stereo not given) -22.1%
CC1=C(c2ccc(C)c(C)c2)S(=O)(=O)N=C1N1CCN(c2cccc(C)c2)C(C)C1 (stereo not given) 2.83%
COc1ccc(C(=O)N2CCCCC2CCN2CCOCC2)cc1 (stereo not given) -5.8%
CCOC(=O)c1c(C)[nH]c(C)c1S(=O)(=O)N(C)CC(=O)Nc1cccc(Cl)c1C -9%
Cc1c(Cl)cccc1NC(=O)c1cc(-c2cccs2)on1 1.02%
COc1ccc(CN2CCCN(CC(=O)Nc3ccc(Br)cc3F)S2(=O)=O)cc1 -14.3%
Cc1ccc(NCc2cccn2-c2nnc(N3CCC(C(=O)NCc4ccccc4C)CC3)s2)cc1 -5.36%
Cc1ccc(-n2ncc(C(=O)NCc3ccc4c(c3)OCO4)c2C2CCN(C(=O)OC(C)(C)C)CC2)cc1C -41.7%
Cc1c(C(=O)N2CCC(C)CC2)c(S(=O)(=O)Nc2cccc(C#N)c2)c(C)n1C -1.72%
Cc1cc(-c2ccc(S(=O)(=O)Nc3cccc(C(F)(F)F)c3)s2)on1 -26.8%
CC(C)Sc1ncc(Cl)c(C(=O)Nc2nc3ccc(S(C)(=O)=O)cc3s2)n1 -14.7%
CCOC(=O)c1ccc(NC(=O)C2=C(C)C(=O)OC23CCCCCC3)cc1 7.71%
CN(C(=O)CSc1nc2ccc(NC(=O)COc3ccc(F)cc3)cc2s1)c1ccccc1 -5.11%
O=C(c1ccccc1Cl)N1CCCC(c2nc3c(nnn3Cc3ccc(F)cc3F)c(=O)[nH]2)C1 (stereo not given) -8.36%
Cc1ccc(-c2nc3cc(Cl)ccc3o2)cc1NC(=O)c1cc2ccccc2o1 -12.6%
NC1[C@H]2CN(c3nc4c(cc3F)c(=O)c(C(=O)O)cn4-c3ccc(F)cc3F)C[C@@H]12 (stereo not given in full) -6.83%
Cc1c(C(=O)N(C)C)sc2c1c(=O)n(-c1ccccc1C(F)(F)F)c(=O)n2Cc1ccccc1C#N -9.56%
Cc1cc(C)c(NC(=O)C2CCN(C(=O)N3CC(C)Oc4ccc(Cl)cc43)CC2)c(C)c1 (stereo not given) -11.4%
Cc1cc(C)cc(NS(=O)(=O)c2ccc(-c3cc(C)no3)s2)c1 -7.51%
COc1ccc(NC(=O)c2cc3c(=O)n(Cc4cccs4)ccc3nc2C)c(OC)c1 -20%
COc1ccc(NC(=O)Cn2c(=O)n(Cc3nc(C)no3)c(=O)c3cc4c(cc32)OCO4)cc1 -7.81%
Cc1ccccc1Cn1c(=O)n(CC2CCC(C(=O)N3CCC(C)CC3)CC2)c(=O)c2sccc21 (stereo not given) -17%
COc1ccccc1CNC(=O)CCCn1c(=O)c2ccccc2n(CC(=O)Nc2ccc(C)cc2Cl)c1=O -8%
CC(C)Cc1nn2c(=O)cc(COC(=O)c3cccc(NC(=O)c4cccs4)c3)nc2s1 -16.6%
COc1ccc(-c2nsc(NC(=O)COc3ccccc3OC)n2)cc1 -15.8%
Cc1c(Cl)cccc1NC(=O)CSc1nc(=O)n(Cc2ccncc2)c2c1CCC2 -12.3%
Cc1ccc(C(=O)COC(=O)CCCC(=O)Nc2cc(C(F)(F)F)ccc2Cl)cc1C 3.03%
COc1cccc(CNC(=O)CSc2cc(C)[nH]c(=O)n2)c1 -24.5%
CCc1nn(CCCN2CCN(c3cccc(Cl)c3)CC2)c(=O)n1CCOc1ccccc1 -13.6%
Cn1c(=O)n(Cc2ccccc2Cl)c(=O)c2c1nc1n2CCN1c1ccccc1 3.92%
CCn1ccc2cc(S(=O)(=O)N3CCCN(C(=O)Nc4ccc(C)cc4Cl)CC3)ccc21 4.11%
COc1cc2c(cc1OC)n(CC(=O)Nc1ccc(C)cc1C)c(=O)n1nc(-c3ccccc3)nc21 -12.9%
Cc1cc(Nc2ccccc2F)n2nc(Cc3ccc(Cl)cc3)nc2n1 -0.609%
Cc1oc(-c2ccc(C(=O)NCCCOC(C)C)cc2)nc1CS(=O)(=O)c1ccccc1 6.42%
COc1ccc(C(=O)NCc2ccc3c(c2)CCN3C(C)=O)cc1OC -3.33%
CC(=O)N1CCN(C(=O)C(=O)Nc2c3c(nn2-c2ccc(Cl)cc2)CSC3)CC1 -3.96%
COC(=O)c1ccc(C2c3c(-c4ccc(Br)cc4)n[nH]c3C(=O)N2c2ccc(Cl)cc2)cc1 (stereo not given) -7.93%
CC(C)c1ccc(Nc2cc(C(=O)NCCCN(C)Cc3ccccc3)c3ccccc3n2)cc1 -9.51%
Cc1cccc(NC(=O)CSc2ncc3c(n2)-c2cc(Cl)ccc2N(C)S3(=O)=O)c1C -15.8%
COc1ccc(-c2nnc(SCC(=O)N3CCCCC3)o2)cc1 -5.74%
CCOc1ccccc1-c1noc(CSc2nnc(-c3ccncc3)n2-c2ccc(F)cc2)n1 -14.5%
CC1CCN(C(=O)CN2c3ccc(Br)cc3-c3ccccc3S2(=O)=O)CC1 -3.99%
O=C(COc1ccccc1)Nc1c(C(=O)N2CCN(c3ccc(F)cc3)CC2)oc2ccccc12 -23.3%
CCc1ccc(OCC(=O)Nc2cc3oc4ccccc4c3cc2OC)c(Br)c1 -19.1%
CCOc1ccc2c(c1)c(=O)c(S(=O)(=O)c1ccc(CC)cc1)cn2CC -8.33%
CCOC(=O)c1ccc(NC(=O)c2c(NCc3cccc(OC)c3)sc3c2CCC3)cc1 -15.2%
Cc1ccccc1Nc1cc(C(=O)NC2CCC(C)CC2)c2ccccc2n1 (stereo not given) -15.1%
Cc1cccc(C)c1NC(=O)N1CCC(C(N)=O)(N2CCCCC2)CC1 -6.21%
